# Source: the BET-seq Pho4 binding data (Le et al. 2018)
# The other results are listed elsewhere or left out. Values were computed here from the reads of four pooled replicates and scatter widely.
# Target: T1, Pho4 (S. cerevisiae) (UniProt P07270)
# T1 sequence: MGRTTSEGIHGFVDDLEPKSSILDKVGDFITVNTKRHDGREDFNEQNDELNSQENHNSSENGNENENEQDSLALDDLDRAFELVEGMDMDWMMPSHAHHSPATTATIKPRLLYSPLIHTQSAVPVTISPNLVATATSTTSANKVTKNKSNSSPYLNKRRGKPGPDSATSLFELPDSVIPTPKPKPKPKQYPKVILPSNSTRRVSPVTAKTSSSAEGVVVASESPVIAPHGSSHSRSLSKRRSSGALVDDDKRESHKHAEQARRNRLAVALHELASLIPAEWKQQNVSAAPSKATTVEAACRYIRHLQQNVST
# Assay: relative binding free energy (BET-seq); higher = weaker binding
# Details: reference: library average
row,Sequence,relative binding free energy [kcal/mol]
1,GTAAGCACGTGGGAGG,-0.03
2,AGGATCACGTGGCTTG,0.04
3,TATGGCACGTGAAAGA,0.21
4,GAAGGCACGTGCGTGG,-0.17
5,TCTTTCACGTGGGATT,0.31
6,ATAGGCACGTGGGAGG,-0.22
7,TTGTGCACGTGTTAGC,0.2
8,TGTATCACGTGGTGGC,0.17
9,GGTTGCACGTGGAAGC,-0.05
10,TTGAACACGTGCGTGG,0
11,AAGAGCACGTGGGTAT,-0.21
12,GTGATCACGTGATGAT,0.15
13,ATGTGCACGTGGGACA,-0.19
14,TCGGTCACGTGTGGTT,0.12
15,GTGCACACGTGGTAGG,0
16,AAGAACACGTGTTAGG,0.03
17,TTTGTCACGTGAATGG,0.33
18,TTTCACACGTGGGGTA,-0.11
19,AGGGACACGTGGTAAT,0.02
20,CATTCCACGTGGGGTG,-0.2
21,CAGTGCACGTGTCTGG,-0.05
22,AGGAGCACGTGGAGGG,-0.18
23,TCCGTCACGTGTTAGT,0.08
24,TACTTCACGTGGCTTT,0.26
25,GGCTACACGTGAGGTG,0.35
26,AGTCTCACGTGGATTT,0.33

row,Sequence,relative binding free energy [kcal/mol]
1,CGTTTCACGTGAATTG,0.31
2,TTGAGCACGTGATTGA,0.06
3,AGTACCACGTGTGTTA,-0.07
4,AGGTTCACGTGATGCA,0.23
5,TGTGTCACGTGTAAAA,0.27
6,TGGAACACGTGTGAGT,0.03
7,GGTGACACGTGTCGGT,0.17
8,TTGCGCACGTGAGGCT,0.08
9,GGGTTCACGTGGACTA,0.23
10,ATATGCACGTGTTAAG,-0.02
11,GCGTGCACGTGGCGGT,-0.08
12,TTATACACGTGGGTAC,-0.06
13,CATTTCACGTGGAGGT,0.28
14,GCGGGCACGTGGTTTG,-0.2
15,TGTGACACGTGGGGTG,-0.21
16,GGGGTCACGTGTATCA,0.06
17,ATGGTCACGTGGGGGA,0.03
18,TGTAGCACGTGGCATG,-0.21
19,GGGGTCACGTGGTTGG,0.18
20,GGGATCACGTGATGCT,0.28
21,TGTGCCACGTGATTGT,0
22,AGTATCACGTGTGCTT,0.13
23,AAAAGCACGTGTGTGT,-0.07
24,TGAAGCACGTGTCAGG,-0.08
25,TGGATCACGTGGAGTT,0.15
26,CTGTACACGTGAGGAT,0.41

row,Sequence,relative binding free energy [kcal/mol]
1,GGGGGCACGTGGACTC,0.03
2,ATAATCACGTGAATTA,0.45
3,GGGTACACGTGCTTTT,0.12
4,GCATTCACGTGAAGGG,0.43
5,GTTGCCACGTGGGTAA,-0.21
6,GGGGACACGTGCTAGT,-0.12
7,GTGTTCACGTGCCGGG,0.27
8,TTTGACACGTGGTATT,-0.07
9,TTCGTCACGTGGATGT,0.14
10,AGAGGCACGTGGCGGC,-0.28
11,GTATGCACGTGTGGGT,0.05
12,TTGCTCACGTGGTTGT,0.07
13,TGGTACACGTGCGGTA,-0.05
14,TGTGACACGTGGTAGC,-0.1
15,AGCTCCACGTGGTGGT,0.06
16,GTGAACACGTGAGTGG,0.33
17,GTAGGCACGTGGTACT,-0.2
18,TAGTCCACGTGTTGGG,0.08
19,TGGCGCACGTGAGTAT,-0.05
20,TTCGTCACGTGGAAGT,0.11
21,TTTCGCACGTGTTCGT,-0.17
22,GGTTTCACGTGTGAGC,0.49
23,CTGGGCACGTGGTGAC,-0.16
24,GGGCGCACGTGTTTTA,-0.09
25,TTGTCCACGTGTGTAG,-0.01
26,TGCTGCACGTGACGTG,0.11

row,Sequence,relative binding free energy [kcal/mol]
1,TAGTTCACGTGTACGT,0.16
2,TGTGTCACGTGTTAGG,0.06
3,GTTGGCACGTGGGATC,0.02
4,GTTATCACGTGGTTCA,0.13
5,GTTGTCACGTGTGCCG,0.12
6,TTCTACACGTGTATGG,0.11
7,TGCGGCACGTGGCGGA,-0.25
8,GCTTTCACGTGATTGG,0.3
9,CTGTTCACGTGTTGGC,0.19
10,TGGGCCACGTGCTGGG,-0.18
11,CTGGGCACGTGGGAAA,-0.09
12,GGGGTCACGTGAGGCA,0.37
13,TATGGCACGTGCAAGT,-0.11
14,AGATGCACGTGAATGG,0.22
15,TCGGTCACGTGGTGAG,0.16
16,TCCGTCACGTGGGTTG,0.04
17,TGGTACACGTGCGTCG,-0.09
18,GTATGCACGTGGCGTA,-0.13
19,AAGGGCACGTGGGGAA,-0.1
20,TTTGACACGTGGTGAA,-0.05
21,GGGGGCACGTGCGGAT,-0.2
22,ACTTTCACGTGGTAGG,0.33
23,TATAGCACGTGAGTTA,0.11
24,CGTATCACGTGTTAGA,0.13
25,CGGTTCACGTGATTAG,0.27
26,TAGGACACGTGAGTTA,0.25

row,Sequence,relative binding free energy [kcal/mol]
1,TTTGGCACGTGCAGTT,-0.08
2,AGTTGCACGTGGTGCT,-0.06
3,TGTTCCACGTGAGGGC,0.22
4,AGTTTCACGTGAGTTG,0.39
5,TTAAGCACGTGGATAG,-0.18
6,CGGGTCACGTGTGACT,0.23
7,TAGAACACGTGTGTAG,-0.02
8,TGGTTCACGTGTAAAG,0.31
9,CATTTCACGTGGGTGC,0.18
10,TGTAGCACGTGATTGT,0.02
11,TGGTGCACGTGTTAAT,0.07
12,TGGTGCACGTGTGTAA,0.05
13,TTACACACGTGAGGTT,0.18
14,AGCAGCACGTGAGTGG,0.19
15,AGTGTCACGTGTGGGA,0.02
16,TACGGCACGTGAGTTT,0.14
17,ATAATCACGTGTTTTC,0.21
18,TTGTTCACGTGGCGGT,0.12
19,TCTAGCACGTGGTTAA,-0.05
20,GGGGTCACGTGCTGTG,0.14
21,ATGTGCACGTGATCGG,0.05
22,ATGTTCACGTGTAAGT,0.17
23,TGTGGCACGTGTATGA,-0.08
24,GTGCGCACGTGGATGG,-0.07
25,CGCGTCACGTGGTTGT,0.09
26,GTAATCACGTGCTGGG,0.01

row,Sequence,relative binding free energy [kcal/mol]
1,TAAGGCACGTGTGATA,-0.01
2,TTGGACACGTGGACGT,0.11
3,GTGTGCACGTGGAATA,0.01
4,TTGGTCACGTGCTTTT,0.11
5,TGTAACACGTGCATGG,-0.06
6,CGAATCACGTGTTGGT,0.07
7,TTATACACGTGTGATA,0.21
8,AGAGTCACGTGGAGCG,0.25
9,TAGATCACGTGTGGTG,0.24
10,GGAGGCACGTGAGGGT,0.13
11,TAGAGCACGTGGCTTT,-0.06
12,GCCTGCACGTGGGGGG,-0.12
13,TAGAACACGTGTTATG,0.02
14,AATCTCACGTGTTATG,0.15
15,TGGGCCACGTGGATGG,-0.04
16,ATAGACACGTGGTGAG,-0.05
17,GTGGGCACGTGCAGGC,-0.21
18,GTTTTCACGTGTGGAG,0.42
19,AGCTCCACGTGGGTTG,-0.05
20,AATGTCACGTGTAAGT,0.14
21,GATTGCACGTGGTACG,-0.03
22,CATTTCACGTGGGGTT,0.11
23,AATTACACGTGGCGGT,0.1
24,GGTTACACGTGTGTGC,0.12
25,AATGACACGTGTTATG,0.02
26,CTGGGCACGTGGTTAA,-0.09

row,Sequence,relative binding free energy [kcal/mol]
1,TTGCTCACGTGGGGTC,-0.03
2,TGAGGCACGTGTTCTG,-0.09
3,GTCGGCACGTGGTTTA,-0.17
4,ATCATCACGTGGGCGG,0.13
5,ATTTTCACGTGGGACA,0.2
6,GGCGACACGTGGTTGG,0.12
7,CATGTCACGTGTCTTG,0.17
8,TTGAACACGTGAGTGC,0.29
9,GGGGACACGTGAATTG,0.28
10,GGGTTCACGTGTTAGT,0.35
11,TGGAACACGTGGGTAA,-0.11
12,GGGGTCACGTGAATAT,0.4
13,AGAATCACGTGGGTTG,0.08
14,CGGAACACGTGGATGG,0.09
15,CTTAGCACGTGTGTTA,-0.22
16,TACTGCACGTGTTATT,0.12
17,CTTGCCACGTGGTGGT,-0.18
18,CGGGTCACGTGCGGCG,-0.1
19,TGGTACACGTGTGTAG,0.09
20,TGTGACACGTGCGGCA,-0.06
21,TGTGCCACGTGTAGCT,-0.11
22,GTCTTCACGTGGTCGT,0.11
23,TTGGGCACGTGTACTA,-0.08
24,GCGGGCACGTGAGTTG,0.24
25,TTTGACACGTGTGTTC,0.06
26,AGGGGCACGTGTCGAG,-0.1

row,Sequence,relative binding free energy [kcal/mol]
1,GGAATCACGTGGGGGG,0.09
2,GTTTCCACGTGGATGG,0.14
3,ATTTACACGTGCTAGG,-0.05
4,AATGGCACGTGTGAGC,-0.1
5,AGTTTCACGTGTTTAC,0.19
6,CTTGTCACGTGTGAAT,0.07
7,TTTGCCACGTGAGTTA,0.15
8,TCTAACACGTGGTGGT,-0.15
9,GTTTGCACGTGTAGTG,0.15
10,TAGATCACGTGATGCG,0.25
11,TTACTCACGTGTGTAA,0.25
12,GGTTACACGTGATCAG,0.22
13,GGTACCACGTGTGGCT,0.01
14,TTTGCCACGTGTTTGG,-0.02
15,TAGTTCACGTGGGACA,0.18
16,TTTAACACGTGCGGGG,-0.07
17,CGGGTCACGTGGTAAT,0.03
18,TTGCACACGTGGTTTT,0
19,TTGCGCACGTGTAATG,0
20,GAGTGCACGTGGTTAA,0.04
21,AAAGACACGTGGAGTG,0.08
22,ATAGGCACGTGTGCAG,-0.27
23,GTTTTCACGTGATGCG,0.32
24,ATTTGCACGTGTATTA,0.06
25,TCGTGCACGTGCGGGG,-0.11
26,TGACTCACGTGATGTA,0.42

row,Sequence,relative binding free energy [kcal/mol]
1,TGAGGCACGTGAGTAG,0.1
2,GGGGACACGTGACGGT,0.1
3,AGTGGCACGTGTGTAG,-0.09
4,GGCACCACGTGAGGGG,0.07
5,TGTGTCACGTGTAGTG,0.08
6,GCTGGCACGTGTTATT,0.06
7,AAAGGCACGTGGTGAT,-0.31
8,TAGACCACGTGAGGGG,0.11
9,AGTGGCACGTGGGTTT,-0.19
10,TCGGGCACGTGGGCAG,-0.24
11,TTGTGCACGTGTATGG,0.12
12,GGATTCACGTGTTGCA,0.39
13,TGTATCACGTGAGGTG,0.3
14,TATGTCACGTGGAGGC,0.14
15,TTAGGCACGTGGAATT,-0.01
16,GTCGACACGTGATTGT,0.21
17,CTTGTCACGTGAAGGG,0.24
18,AGTTCCACGTGTGGTG,0.12
19,TTATACACGTGTAAGG,0.06
20,CAATACACGTGGGTGT,-0.06
21,AGATGCACGTGGGCAT,-0.19
22,CATTTCACGTGTTGAA,0.34
